# Assay results from article PMC4336329 (PLoS ONE, 2015).
# The whole screen tested about 310,000 compounds, of which about 2,200 (0.71%) showed an effect of 50% or more. The effect is printed as a negative number. The list shows a part of the results.
# Target: human ether-à-go-go-related gene (hERG) potassium channel (human, UniProt Q12809)
# Assay: primary screen, population patch clamp on CHO cells stably expressing hERG
# human ether-à-go-go-related gene (hERG) potassium channel, sequence (Q12809 whole entry, looked up): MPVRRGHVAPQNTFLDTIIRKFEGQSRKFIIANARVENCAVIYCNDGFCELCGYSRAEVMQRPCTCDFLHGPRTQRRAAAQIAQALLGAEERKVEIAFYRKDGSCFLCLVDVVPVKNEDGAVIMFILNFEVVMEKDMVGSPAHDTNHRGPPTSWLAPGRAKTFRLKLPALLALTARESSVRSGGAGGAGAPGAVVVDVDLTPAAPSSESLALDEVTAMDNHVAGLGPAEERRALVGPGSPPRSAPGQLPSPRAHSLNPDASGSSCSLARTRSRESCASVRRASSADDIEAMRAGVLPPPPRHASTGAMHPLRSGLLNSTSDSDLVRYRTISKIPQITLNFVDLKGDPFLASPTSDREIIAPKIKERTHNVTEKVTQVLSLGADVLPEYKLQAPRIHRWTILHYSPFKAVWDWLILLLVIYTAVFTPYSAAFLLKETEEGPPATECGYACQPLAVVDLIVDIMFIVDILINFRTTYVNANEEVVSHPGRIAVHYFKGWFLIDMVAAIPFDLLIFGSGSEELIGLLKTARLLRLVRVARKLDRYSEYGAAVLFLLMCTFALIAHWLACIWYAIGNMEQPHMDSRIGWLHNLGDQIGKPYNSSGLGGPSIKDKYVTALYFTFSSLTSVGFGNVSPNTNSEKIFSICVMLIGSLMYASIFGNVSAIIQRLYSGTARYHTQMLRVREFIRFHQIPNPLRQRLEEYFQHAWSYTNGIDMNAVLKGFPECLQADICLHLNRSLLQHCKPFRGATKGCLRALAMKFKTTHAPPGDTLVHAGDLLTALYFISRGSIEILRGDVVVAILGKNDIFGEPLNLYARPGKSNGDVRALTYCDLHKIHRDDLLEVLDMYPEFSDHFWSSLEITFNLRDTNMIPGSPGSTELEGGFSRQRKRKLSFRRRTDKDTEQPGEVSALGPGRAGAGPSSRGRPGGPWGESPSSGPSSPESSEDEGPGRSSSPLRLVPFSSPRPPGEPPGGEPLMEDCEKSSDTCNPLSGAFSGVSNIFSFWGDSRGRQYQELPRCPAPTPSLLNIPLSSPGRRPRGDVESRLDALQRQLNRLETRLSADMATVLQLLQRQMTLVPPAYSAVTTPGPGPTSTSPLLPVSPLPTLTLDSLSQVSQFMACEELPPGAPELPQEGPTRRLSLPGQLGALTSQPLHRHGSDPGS
row,SMILES,"hERG current change (%, negative = inhibition) at 1uM"
1,C=CCc1cccc2cc(C(=O)NC3=C(C#N)CCC3)c(=O)oc12,1.54%
2,CCOC(=O)N1CCC(N2C(=O)c3ccccc3C2Nc2ccc3c(C)cc(=O)oc3c2)CC1 (stereo not drawn),-10.6%
3,CCOC(=O)c1c(C)n(CCOC)c2ccc(O)cc12,12.3%
4,CCOC(=O)CN(C(=O)CSc1nnc(C)n1-c1ccccc1)c1cccc([N+](=O)[O-])c1,-1.67%
5,Cc1ccc2nc(SCC(=O)NCc3ccc4c(c3)OCO4)nc(=O)n2c1,8.95%
6,Cc1ccc(C(N)=S)c(C)c1,13.3%
7,CCC(C)/C=C/C1=CC2=C(Cl)C(=O)C3(C)OC(=O)C(C(=O)C(C)C(C)O)C3C2=CO1 (stereo not drawn),14%
8,CCc1ccc2[nH]c3nc(SCc4nnc(-c5ccccc5)o4)nnc3c2c1,15.3%
9,CN1C(=O)C(c2ccccc2)C(=O)N(C)C1=O,12.6%
10,CC(NC(=O)c1ccc(-c2ccccc2)cc1)C(c1ccccc1)N1CCOCC1 (stereo not drawn),3.97%
11,CCCCNC(=O)c1ccc(N2CCC3(CC2)OCCO3)c([N+](=O)[O-])c1,5.82%
12,CCCN(CC(=O)Nc1ccc(F)c(F)c1F)C(=O)CCc1nc2ccccc2c(=O)[nH]1,-8.65%
13,COc1ccc(CCNC(=O)C2CCCN(S(=O)(=O)N3CC(C)CC(C)C3)C2)cc1OC (stereo not drawn),6.52%
14,COCCNCCOCCOc1ccc(Cl)c(C)c1.O=C(O)C(=O)O,3.47%
15,COc1ccc(S(=O)(=O)N(C)C2CCN(C)CC2)cc1,-2.93%
16,CCCN(CC(=O)Nc1ccccc1C)C(=O)Cc1coc2cc(C)ccc12,-23.1%
17,CC(C)C(=O)NC(C)C(c1cccs1)N1CCN(c2ccccc2)CC1 (stereo not drawn),3.16%
18,O=c1[nH][nH]cc1C=Nc1ccc(Oc2ccccc2)cc1,9.3%
19,COc1ccccc1CNC(=O)CCc1cn(C)c2ccccc12,5.5%
20,CCN(CC(=O)NC(=O)NCc1ccco1)Cc1nc2ccccc2c(=O)[nH]1,8.27%
21,CC1(C)CC(=O)C(C(c2ccc(F)cc2)C2C(=O)CC(C)(C)CC2=O)C(=O)C1,17%
22,CCc1ccccc1NS(=O)(=O)c1cc(C)ccc1OC,-4.13%

row,SMILES,"hERG current change (%, negative = inhibition) at 1uM"
1,COC(=O)c1cc2n(n1)CCN(Cc1ccc(F)cc1)C2=O,-2.09%
2,COc1cccc(/C(O)=C2/C(=O)C(=O)N(CCN3CCOCC3)C2c2cccnc2)c1 (stereo not drawn),10.7%
3,Cc1nc2c(o1)CCc1ccccc1C2N1CCN(C)CC1.O=C(O)/C=C/C(=O)O (stereo not drawn),5.21%
4,CCc1cccc(N(CC(=O)NC2CCCCC2)C(=O)c2csnn2)c1,10.4%
5,CC(C)(C)NC(=O)COc1ccc(CNc2ccc3[nH]c(=O)[nH]c3c2)cc1,6.35%
6,CN(C)S(=O)(=O)c1cccc(COC(=O)c2cccnc2Cl)c1,-5.16%
7,c1ccc(C2=Nn3c(Cn4nnc5ccccc54)nnc3SC2)cc1,9.56%
8,O=C(C1CCCO1)N1CCN(c2ccc(F)cc2)CC1 (stereo not drawn),3.43%
9,CCOC(=O)c1cnn2c(C)cc(-c3ccc(F)cc3)nc12,-4.24%
10,Cc1ccccc1C(=O)N/N=C/c1ccsc1C,9.56%
11,O=C(Cn1nc(C(=O)O)c2ccccc2c1=O)Nc1ccc(Br)cc1,12.7%
12,CCC(CC)c1nnc(NC(=O)Oc2ccccc2)s1,1.13%
13,CCCc1ccc(C(=O)CN2C(=O)C(=O)N(C3CCCC3)C2=O)cc1,0.929%
14,Cc1cccc(C(=O)NCCc2ccccc2)c1,-2.51%
15,CCCn1nc(Oc2nc(NCC)nc(NCC)n2)ccc1=O,10.6%
16,CCC(C)(C)C1CCC2(CC1)NC(=O)N(CC(=O)N(C)CC(=O)Nc1ccccc1C(F)(F)F)C2=O (stereo not drawn),1.57%
17,Cc1ccnn1CCC(=O)N1CCCC(Nc2ccc(F)c(F)c2)C1 (stereo not drawn),19.6%
18,CC(C)NC(=O)C1CCCN(c2nnc(-n3cccc3)s2)C1 (stereo not drawn),2.28%
19,CCc1cc(=O)oc2cc(OC(C)C(=O)NCc3ccccn3)ccc12 (stereo not drawn),22.5%
20,COc1cc(CO)ccc1OCC(=O)Nc1cccc2ccccc12,9.53%
21,CC(C)n1cnnc1SCC(=O)Nc1cccc(S(=O)(=O)N(C)c2ccccc2)c1,4.63%
22,CC(C)CO/C(=N/S(=O)(=O)c1ccccc1)c1ccccc1,13.7%

row,SMILES,"hERG current change (%, negative = inhibition) at 1uM"
1,CCSc1nnc(NC(=O)c2ccc(Br)s2)s1,5.18%
2,Cn1cnnc1SCC(=O)c1ccc(O)c(O)c1,17.4%
3,O=C(O)CC(NNC(=O)c1ccccc1)C(=O)Nc1cccc([N+](=O)[O-])c1 (stereo not drawn),12.5%
4,CCCNC(=O)C1CC(c2ccccc2[N+](=O)[O-])=NO1 (stereo not drawn),7.38%
5,Cc1cccc(C(=O)OCC(=O)N2CCC(c3ccccc3)=N2)c1O,16.6%
6,COc1ccc(S(=O)(=O)n2cnc3cc(C)c(C)cc32)cc1,10%
7,CCOc1ccc(NC(=O)CCCCCN2C(=O)[C@@H]3Cc4ccccc4CN3C2=O)cc1,16.7%
8,Fc1ccc(C(c2nnnn2Cc2cccs2)N2CCN(C3CCCCC3)CC2)cc1 (stereo not drawn),-46.6%
9,Cc1nc(Cl)nc(N(C)c2ccccc2)c1[N+](=O)[O-],14.5%
10,CCOC(=O)CNC(=O)CSc1ncccc1-c1nc2ccccc2[nH]1,10.4%
11,COc1cc(/C=N/OCC(=O)NC2CCCCC2)ccc1OCc1ccccc1,10.1%
12,O=C(CCn1nc(-c2ccccc2)ccc1=O)N1CCN(c2ccccc2)CC1,-2.36%
13,O=C(OCCN1C(=O)c2ccccc2C1=O)c1ccco1,10.5%
14,COc1cc(OC)cc(-c2nnc(SCC(=O)NCc3cccs3)o2)c1,12.6%
15,COc1ccc(Nc2cc(Nc3ccccc3)ncn2)cc1,7.07%
16,Cc1ccc2[nH]c(=O)c(CN(Cc3ccco3)C(=O)N3CCOCC3)cc2c1,11.1%
17,CCc1ccc(NC(=O)CN(c2ccccc2)S(=O)(=O)N(C)C)cc1,9.07%
18,CC(C)c1ccccc1NC(=S)NC1CCCCC1,-3.11%
19,CC(C)(C)c1ccc(C(=O)NCC(=O)N2CCC3(CC2)NCCc2[nH]cnc23)cc1,17.8%
20,Cc1ccc(C(=O)NN2C(=O)c3ccc(S(=O)(=O)c4ccc(C(=O)O)cc4)cc3C2=O)cc1,15.7%
21,O=C(COc1ccccc1Cl)NC(=S)Nc1cccc(NC(=O)c2ccccc2Cl)c1,19.9%
22,O=C(COC(=O)Cn1cnc2ccccc21)Nc1cccc2c1C(=O)c1ccccc1C2=O,13.1%

row,SMILES,"hERG current change (%, negative = inhibition) at 1uM"
1,Cc1ccc(S(=O)(=O)NCCN2CCOCC2)s1,12.4%
2,CN(C(=O)COC(=O)COc1ccc2c(c1)CCC2)c1c(N)n(Cc2ccccc2)c(=O)[nH]c1=O,0.783%
3,O=C(NCCc1ccccc1F)N[C@@H](Cc1ccccc1)C(=O)O,-0.906%
4,O=C(O)c1cnc(-c2ccccc2)nc1Oc1ccc(Cl)cc1,16.7%
5,Cc1ccc(CNC(=O)Nc2ccccc2)c(C)c1,12%
6,CCOC(=O)N1CCN(C(=O)Nc2cccc(Cl)c2)CC1,9.56%
7,C=CCNc1nc(Nc2ccc(Cl)cc2)nc(OC)n1,-3.19%
8,CC/C(=N\OC(=O)c1ccc(OC(C)C)cc1)c1ccc(C)cc1,17.1%
9,CCOc1ccc(Oc2ccc(NS(=O)(=O)c3cc(C(=O)O)ccc3Cl)cc2)cc1,15.8%
10,Cc1cc(Cl)ccc1Oc1ncnc2oc(-c3ccccc3)cc12,6.84%
11,O=C1CN(C(=O)N[C@@H](Cc2ccccc2)C(=O)N[C@H](Cc2ccccc2)C(=O)O)c2ccccc2N1,14.5%
12,O=C1C(NS(=O)(=O)c2cccs2)=C(N2CCN(c3cccc(Cl)c3)CC2)C(=O)c2ccccc21,0.888%
13,COc1cc(C(=O)OCc2ccc([N+](=O)[O-])cc2)cc(OC)c1OC,-2.94%
14,Cn1cccc1C(=O)NNC(=O)COc1ccccc1F,14.8%
15,Br.C#CCOC(=O)C1=CCCN(C)C1,12.9%
16,CCN1CCN(Cc2ccc(NC(=O)c3ccc(C)c(NC(=O)c4nccnc4N)c3)cc2C(F)(F)F)CC1,8.27%
17,COc1ccc(-n2c(Cc3ccccc3)nnc2SCc2ccc([N+](=O)[O-])cc2)cc1,0.853%
18,CCN(CC)CCNC(=O)CNC(=O)c1nn(-c2ccc(OC)cc2OC)c(=O)c2ccccc12,4.34%
19,COc1ccc(CN(C(=O)c2ccc(-c3ccccc3)[nH]2)C(C(=O)NC(C)(C)C)c2ccncc2)cc1 (stereo not drawn),10.1%
20,CCn1cc(CN2CCCC(CO)(Cc3ccc(F)cc3)C2)c2ccccc21 (stereo not drawn),7.49%
21,CC(=O)Nc1ccc(N=Cc2c(O)n(Cc3ccco3)c(=O)[nH]c2=O)cc1,6.09%
